# Test results: publication PMC7819943, “Rice protein-binding microarrays: a tool to detect cis-acting elements near promoter regions in rice”
# Some of the results follow.
# Molecular target: T1, OsWOX13 (Oryza sativa, UniProt Q5QMM3 1-267)
# T1 sequence: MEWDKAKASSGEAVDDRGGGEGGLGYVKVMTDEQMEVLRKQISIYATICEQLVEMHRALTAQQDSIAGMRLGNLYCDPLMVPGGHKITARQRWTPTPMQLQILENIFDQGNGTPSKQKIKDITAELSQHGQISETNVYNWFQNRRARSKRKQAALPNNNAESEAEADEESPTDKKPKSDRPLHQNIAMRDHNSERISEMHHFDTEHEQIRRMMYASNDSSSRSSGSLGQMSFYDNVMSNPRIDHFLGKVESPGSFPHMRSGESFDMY
# Experiment: protein-binding microarray (RPBM); PBS, 2% BSA, 51.3 ng/ul salmon testes DNA, 50 uM zinc acetate, 200 nM TF, 25 C, 1 h; high values mean tight binding
# Settings: protein: recombinant; tags: N-terminal polyhistidine and DsRed monomer fusion (pET32a); label: CyDye5-dUTP incorporated in the synthesized complementary strand; 3' TTTTT single-stranded linker to array surface; dsDNA, one strand shown
# Method in brief: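 The binding signal is fluorescence intensity per array feature (arbitrary units). Readings came from an Axon 4000B scanner after a washed, 2% BSA-blocked, double-stranded custom Agilent array had been incubated for 1 h at 25 °C with 200 nM protein and 50 µM zinc acetate. The protein was a Ni–NTA-purified transcription factor fused N-terminally to polyhistidine and DsRed, expressed in E. coli BL21-CodonPlus.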
row,Sequence,binding signal
1,TTTCAGAACAAAATTTGAATGCTATGATTATATATAGGGACGGAGTCACCTAGTGCAG,3330 fluorescence intensity (a.u.)
2,TCCAGCCAAAATTTAAATTTAAAACTCAATTTTAAAGTTACGGAGTCACCTAGTGCAG,3840 fluorescence intensity (a.u.)
3,GTAATTATAATTTATTTTGTTATGAGTTGTTTTATCACTCCGGAGTCACCTAGTGCAG,6220 fluorescence intensity (a.u.)
4,CATGATCACAACCATGACTACAATTAATAACTTGGCAGCACGGAGTCACCTAGTGCAG,3790 fluorescence intensity (a.u.)
5,ATTTTCTATAATTACGTATATGCCCCACACGAACAGTATTCGGAGTCACCTAGTGCAG,4820 fluorescence intensity (a.u.)
6,GAAATTAGCATTAAATGAAATTTTCCTTTGGATTTTCTACCGGAGTCACCTAGTGCAG,10600 fluorescence intensity (a.u.)
7,GTGTGGAGTTAAATTGGTAGGTGCCTTTGATGCTTTCACGCGGAGTCACCTAGTGCAG,4160 fluorescence intensity (a.u.)
8,CTACCATTAATGCTAAACTAAATTTCCAAATGACCCTCCCCGGAGTCACCTAGTGCAG,6060 fluorescence intensity (a.u.)
9,TTGTCTGTTTTCAATCTTTACATGACAATCAGCCATGCTCCGGAGTCACCTAGTGCAG,3210 fluorescence intensity (a.u.)
10,ATGGCCAATTATATGTCGCAATCTCACGAGTAAGCAATAGCGGAGTCACCTAGTGCAG,4070 fluorescence intensity (a.u.)
11,ACTAGGAATTAATTGAAGTAGCTACTGAAAACCGTAGATACGGAGTCACCTAGTGCAG,15400 fluorescence intensity (a.u.)
12,ATGATGATTGGTGTTATATTAATAAAAGAAGTTTATGTACCGGAGTCACCTAGTGCAG,30800 fluorescence intensity (a.u.)
13,TGTGAAAATAATTAAGTCCCCGTTATCTCAGCCATAGGTGCGGAGTCACCTAGTGCAG,5940 fluorescence intensity (a.u.)
14,AATAATTAAATTAAGCTAGCTACTCTGGATAAGTCCTGCACGGAGTCACCTAGTGCAG,37900 fluorescence intensity (a.u.)
15,GGGAGATTTAAATGTTGGATCAATTAGCTTGAGAGGAATGCGGAGTCACCTAGTGCAG,11200 fluorescence intensity (a.u.)
16,AAATAGATAGATGATCTCATATTTCGAAAGTTCAATGGCTCGGAGTCACCTAGTGCAG,21900 fluorescence intensity (a.u.)
17,CTTTCTCGCAGCAAGATTGTCAATCTCTTGACTATTTCTGCGGAGTCACCTAGTGCAG,6290 fluorescence intensity (a.u.)
18,CGCCTCAATCACCAAATCGATTTCACATCATTCGTCTCTTCGGAGTCACCTAGTGCAG,16200 fluorescence intensity (a.u.)
19,GCCAATTACCTTTGTCAGATTGCCGGCATGGTGGGTAGTACGGAGTCACCTAGTGCAG,11900 fluorescence intensity (a.u.)
20,TCTTTTGATTTGGTATTCAGTTCCTCTTTCTTTCCGTTGTCGGAGTCACCTAGTGCAG,12700 fluorescence intensity (a.u.)
21,CAGTCAATCCAATCCATCAACATATTTATTTTAATCATAGCGGAGTCACCTAGTGCAG,23000 fluorescence intensity (a.u.)

row,Sequence,binding signal
1,GTAGTGCTGATTGGCCGTAGTAGTTAATTCGTTAAGAGATCGGAGTCACCTAGTGCAG,36800 fluorescence intensity (a.u.)
2,ATGTTGAGTGGAGATGACTGATGAGTAATCAGTCATGTTACGGAGTCACCTAGTGCAG,18400 fluorescence intensity (a.u.)
3,AACTATTTTAACGCATGATTTAACGGGGAACATCAATATACGGAGTCACCTAGTGCAG,4430 fluorescence intensity (a.u.)
4,GTGGGTGCCCTAATTGATTGACTGGTCCAAAGACTCAAACCGGAGTCACCTAGTGCAG,50200 fluorescence intensity (a.u.)
5,TTAGACAGCTGATACTCCATCAATCTGAAGTTTGAATATCCGGAGTCACCTAGTGCAG,5440 fluorescence intensity (a.u.)
6,GAATTAAATGATGTGTGAATAATGGATGGCTAGGATGCAACGGAGTCACCTAGTGCAG,9780 fluorescence intensity (a.u.)
7,CACTTTATTGAATTTTCTTACTGGCATGTCCTGATCCTCTCGGAGTCACCTAGTGCAG,3480 fluorescence intensity (a.u.)
8,AATAATTAGATACTTTGTAGGGTAAAATAAGAATTTGGTGCGGAGTCACCTAGTGCAG,32600 fluorescence intensity (a.u.)
9,AAATACACTAAAATTACATATGTAATTTAGAGACTTACAACGGAGTCACCTAGTGCAG,4960 fluorescence intensity (a.u.)
10,AAAATTTCGGTGATATAATTTATTTTCCACGAATTTTCGGCGGAGTCACCTAGTGCAG,11400 fluorescence intensity (a.u.)
11,CTCCCTCCGTTTCATAATGTAAGACTTTCTAGCATTGTCTCGGAGTCACCTAGTGCAG,48800 fluorescence intensity (a.u.)
12,TTGTGAAATGTTGATGAGGCTGATTGAGCGAGAAGCAGTGCGGAGTCACCTAGTGCAG,20000 fluorescence intensity (a.u.)
13,CTATAGCAGTGATTGCCTGTTGGCGTAAACCTCTAGGGATCGGAGTCACCTAGTGCAG,20000 fluorescence intensity (a.u.)
14,ACTAACTTATACGTATAATCAAATCAGCAATCCGTGAACACGGAGTCACCTAGTGCAG,6420 fluorescence intensity (a.u.)
15,AAATGATAGAAAGACTCCGTTGCTTGTTAAGGCAAAATGGCGGAGTCACCTAGTGCAG,8600 fluorescence intensity (a.u.)
16,CCAATAATAACACTGATCACTGATCAATCATGGCATCATGCGGAGTCACCTAGTGCAG,16000 fluorescence intensity (a.u.)
17,ATGTATGTAATTACCATTTATTTTGCTAGGATTTGTTCTTCGGAGTCACCTAGTGCAG,26200 fluorescence intensity (a.u.)
18,TGTGGGATGGATTTGTGGTGATTGAGAGGGTTTGAAAGGGCGGAGTCACCTAGTGCAG,15700 fluorescence intensity (a.u.)
19,TAGATTATTATAATTACTCTGTTTCAAATTCGTTGTTCAACGGAGTCACCTAGTGCAG,13700 fluorescence intensity (a.u.)
20,CTAACTCAATGATTAAAATCTCGCCAGATCCCTCCTGCGTCGGAGTCACCTAGTGCAG,16700 fluorescence intensity (a.u.)
21,TTATTTATTAATTGTATTTCTATTTGGACTCTATACTCTACGGAGTCACCTAGTGCAG,4650 fluorescence intensity (a.u.)
